In PubChem BioAssay AID1508642 (National Center for Advancing Translational Sciences (NCATS), 2021):
In all, about 43,000 compounds went through this assay and about 200 (0.47%) were called active. Inconclusive results (about 12%) are left out. Calls follow the shape of the dose curve; as a rule, active = well fitted cell-killing curve with a large enough effect; inconclusive = small, poorly fitted or top-dose-only effect, or effect the other way; inactive = flat fitted curve, though single readings scatter. This is one part of the list.

Test: Cell viability qHTS assay in S16 Pmp22-F2sN cells; also: nearly all actives have a fitted effect of over 65% in size
Details: S16 Pmp22-F2sN Schwann cells (luciferase reporters placed in the Pmp22 gene) viability, CellTiter-Glo, 24 h; series mostly up to 57.5 µM; activity change, negative = cytotoxicity: at the top concentration
How it was run: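 Luminescence from CellTiter-Glo, read by CCD camera after a 15 min room-temperature incubation, served as the viability signal. Reporter Schwann cells (S16 Pmp22-F2sN) had been treated with pin-transferred compounds for 24 h at 37C.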
% is scaled to controls: 0 for no effect and ±100 for the full control effect.

Structure (SMILES) | activity change, negative = cytotoxicity
CCOc1ccc(C(=O)Nc2ccc3nc(SCC(=O)N4CCCC4)sc3c2)cc1 | inactive: 1.14%
CCc1ccc(CNC(=O)c2cnc3sc(N4CCCCCC4)nn3c2=O)cc1 | inactive: 14.7%
CCC1CCCCN1C(=O)CSc1nc(-c2ccc(OC)cc2)cc(C(F)(F)F)n1 (stereo not drawn) | inactive: -2.76%
CCCC(=O)Nc1nnc(S(=O)(=O)N(C)c2ccccc2)s1 | inactive: -4.9%
COc1ccc(S(=O)(=O)N(CCc2ccccc2)CC(=O)NCc2ccc(C)cc2)cc1 | inactive: -0.181%
Cc1ccc(CSc2nc3cccnc3n2Cc2nc(-c3ccccc3F)oc2C)cc1 | inactive: -16.3%
CCOc1ccc(CNC(=O)CN2C(=O)CSc3c2c(C)nn3-c2ccccc2)cc1 | inactive: 29.6%
COCCNC(=O)c1ccc(NC(=O)N2CCCCc3ccccc32)cc1 | inactive: -0.126%
O=C(Nc1c(O)c2ccccc2oc1=O)c1ccccc1Cl | inactive: -4.49%
O=C(C1CC1)N1CCc2cc(Br)cc(S(=O)(=O)Nc3ccc(C(F)(F)F)cc3)c21 | inactive: 8.01%
CCOc1ccc(-n2nc3ccc(NC(=O)COc4ccccc4C)cc3n2)cc1 | inactive: 15%
COc1ccc(NC(=O)C(=O)NCCc2csc3nc(-c4ccccc4C)nn23)cc1 | inactive: 15.9%
COc1cccc(CNC(=O)C2CCCN(c3nnc(-n4c(C)ccc4C)s3)C2)c1 (stereo not drawn) | inactive: -6.25%
O=C(NCC(c1cccnc1)N1CCN(Cc2ccccc2)CC1)C(=O)Nc1ccc(F)cc1 (stereo not drawn) | inactive: -0.332%
COC(=O)c1ccccc1NC(=O)CSc1c2c(nc3ccc(Cl)cc13)CCCC2 | inactive: 16.8%
CCOc1ccc(CN2C(=O)c3ccccc3Sc3ccc(C(=O)NC4CCC(C)CC4)cc32)cc1 (stereo not drawn) | inactive: 5.34%
CCOC(=O)c1ccccc1NC(=O)CCc1c(C)nc2c(c1C)c(=O)n(C)c(=O)n2C | inactive: -0.107%
Cc1ccc(Cn2c(Cc3ccccc3)nc3ccccc32)cc1 | inactive: -21.1%
COC(=O)c1ccc(NC(=O)CCOc2ccccc2)cc1 | inactive: 3.65%
O=C(NC1CC(=O)N(c2ccc(F)cc2)C1)C(c1ccccc1)c1ccccc1 (stereo not drawn) | inactive: -2.53%
Cn1cc(C(=O)N2CCN(c3ccccc3)CC2)c(=O)c2cc(S(=O)(=O)N3CCCC3)ccc21 | inactive: -21.5%
COC(=O)c1ccc(NC(=O)c2cc3cc4ccc(OC)c(Cl)c4nc3s2)cc1 | inactive: 3.14%
CC(=O)c1ccc(NC(=O)c2nn(C)c3c2COc2ccccc2-3)cc1 | inactive: 3.66%
COc1ccccc1NC(=O)C1=C(C)Nc2nc(SCc3ccccc3)nn2C1c1cccs1 (stereo not drawn) | inactive: -8.93%

Structure (SMILES) | activity change, negative = cytotoxicity
Cc1ccc(NC(=O)c2sc3nc[nH]c(=O)c3c2C)cc1C | inactive: -0.0557%
Cc1ccc(NC(=O)CN2C(=O)c3ccccc3Sc3ncccc32)c(C)c1 | inactive: 24.3%
O=C(NCCc1ccc(Cl)cc1)c1ccc2c(c1)N(Cc1ccccc1)C(=O)CS2 | inactive: -15.7%
O=c1c2ccccc2nc(-c2ccc(Cl)cc2)n1CCCCOc1ccc(F)cc1 | inactive: 7.65%
CCOc1ccccc1NC(=O)N1CCC(N2CCN(Cc3ccccc3)C(=O)C2=O)CC1 | inactive: -3.72%
CC(Oc1ccccc1F)C(=O)N1CCC(c2nc3ccccc3o2)CC1 (stereo not drawn) | inactive: 1.65%
CCOC(=O)c1c(NC(=O)c2cc(-c3ccc(Br)cc3)on2)sc(C)c1C | inactive: -3.41%
CCc1cc2c(-c3ccccc3)cc(=O)oc2c2c1OCN(Cc1ccc(C)cc1)C2 | inactive: 0.481%
CCN(Cc1ccccc1)S(=O)(=O)c1ccc(F)c(C(=O)Nc2ccc(C(C)C)cc2)c1 | inactive: 0.544%
Cc1cccc(C)c1NC(=O)c1cc2sccc2n1Cc1ccc(F)cc1 | inactive: -6.87%
COc1ccc(OC)c(CNc2ncc(-c3ccc(Cl)cc3)n2C)c1 | inactive: 24%
COc1cc(NC(=O)C2CCN(S(=O)(=O)c3c(C)noc3/C=C/c3c(C)cc(C)cc3C)CC2)cc(OC)c1 | inactive: 10.9%
Cc1ccc(CNC(=O)c2cn(C)c3ccc(S(=O)(=O)N4CCC(C)CC4)cc3c2=O)cc1 | inactive: -2.67%
Cc1ccc(CNC(=O)CCCn2nc(C)n3c(cc4sccc43)c2=O)cc1 | inactive: 4.46%
COc1cccc(C(=O)c2cn(CC(=O)Nc3ccc4c(c3)OCCO4)c3nc(C)ccc3c2=O)c1 | inactive: -10.9%
CCC(=O)N1CCc2cc(S(=O)(=O)NC(CC(C)C)C(=O)NCc3cccc(OC)c3)ccc21 (stereo not drawn) | inactive: -19.1%
Cc1ccc(Sc2c(C)nn(-c3ccccc3)c2OC(=O)CC(C)C)cc1 | inactive: 3.85%
CCOc1ccc(CC(=O)NCc2ccc3c(c2)CCN3C(=O)c2ccc(F)cc2)cc1OCC | inactive: 4.76%
O=C(NCCCc1ccccc1)c1ccc2c(c1)sc1nc(-c3ccc(F)cc3)cn12 | inactive: -22.2%
Cc1ccc(COC(=O)c2ccc(-c3nnn(Cc4ccc(C)cc4)n3)cc2)cc1 | inactive: 1.75%
CCN(CCCNC(=O)CN1N=C(c2ccc(C)cc2)CCC1=O)c1ccccc1 | inactive: -9.84%
CCOc1ccc(C2c3[nH]c4ccccc4c3CCN2C(=O)CCC2CCCC2)cc1 (stereo not drawn) | inactive: -16.8%
CCOC(=O)C1CCCN(S(=O)(=O)c2cc(Br)cc3c2N(C(=O)CC)CC3)C1 (stereo not drawn) | inactive: 6.2%
CCCCN(CC)C(=O)Cn1cc2c(n1)-c1c(oc(C(=O)N3CCCC3)c1C)CC2 | inactive: 2.14%
